According to patent publication US20240010748A1 (SHANGHAI QILU PHARMACEUTICAL RESEARCH AND DEVELOPMENT CENTRE, published 2024):

Experiments:
[1] = biological target: T1, human CD3 (hCD3) naturally expressed on Jurkat cells (human, UniProt P07766); assay: FACS on Jurkat cells
T1 construct: whole, on cells; CD3 on cells is a complex of several chains; also called CD3 receptors on Jurkat-NFAT cells
Protocol: (§1) The binding situation of the anti-CD3-CLDN18.2 bispecific antibodies to stably-transfected HEK293 cells expressing hCLDN18.2 (HEK293-hCLDN18.2) and T lymphocytes naturally expressing hCD3 (Jurkat) were detected by using FACS.
(§2) HEK293-hCLDN18.2 or Jurkat cells were collected and re-suspended with FACS buffer (PBS+1% BSA+0.5 mM EDTA), after adjusting the cell concentration, 1E5 cells per well were added into a 96-well plate, and then the antibody after gradient dilution was added according to the preset concentration, wherein the negative control was human IgG1AA (Negative-IgG1AA), the positive control of CLDN18.2 was antibody 6#AA, and the positive control of CD3 was antibody h160C9AA. […]

[2] = biological target: T2, human Claudin 18.2 (hCLDN18.2) on stably-transfected HEK293 cells (human, UniProt P56856-2 1-261); assay: cell-based or functional assay
T2 sequence (looked up): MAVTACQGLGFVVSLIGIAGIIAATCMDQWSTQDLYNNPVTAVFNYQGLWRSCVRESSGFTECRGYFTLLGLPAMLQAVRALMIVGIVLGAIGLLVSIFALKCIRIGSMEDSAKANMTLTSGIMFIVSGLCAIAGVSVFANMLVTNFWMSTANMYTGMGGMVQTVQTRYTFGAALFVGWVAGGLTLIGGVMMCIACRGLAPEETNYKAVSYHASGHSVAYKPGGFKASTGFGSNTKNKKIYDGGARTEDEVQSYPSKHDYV

[3] = biological target: T1, human CD3 (hCD3) naturally expressed on …; assay: cell-based or functional assay
[4] = biological target: T2, human Claudin 18.2 (hCLDN18.2) on …; assay: cell-based or functional assay; remark: listed apart in the source
[5] = biological target: T2, human Claudin 18.2 (hCLDN18.2) on …; assay: FACS on HEK293-hCLDN18.2 cells
Protocol: as §1, §2

[6] = biological target: T3, Cynomolgus macaques Claudin 18 (cynoCLDN18) on stably-transfected HEK293 cells (Cynomolgus macaques, UniProt A0A2K5VVB4 1-261); assay: FACS on HEK293-cynoCLDN18 cells
T3 chain: T2 sequence (looked up) with I240T, R246H, V251L

human CD3 E&D protein = biological target: T4, human CD3 E&D protein (human, UniProt P07766 23-126; P04234 22-105); assay: SPR (Biacore 8K), CD3 E&D immobilised by amino coupling, antibody as analyte, 1:1 fit
T4 construct: Soluble CD3 epsilon and delta protein immobilised on the chip; also called Humanized CD3 E&D; humanized CD3 E&D protein
Protocol: The affinity and kinetic properties of the bispecific antibodies to human CD3 E&D proteins were determined by surface plasmon resonance (SPR) using a Biacore 8K instrument. The human CD3 E&D protein was immobilized on the experimental channel of CMS chip by amino coupling, then the antibody to be tested was subjected to doubling dilution to serial concentrations, flowed through the surfaces of an experimental channel and a reference channel successively for binding, followed by dissociation, the binding and dissociation curve of each sample was obtained, and the results were analyzed and evaluated by Biacore Insight Evaluation software.
The bispecific antibodies of the present disclosure were diluted to 400 nM with 1×HBS-EP+ (10 mM HEPES, pH 7.4, 150 mM NaCl, 3 mM EDTA, 0.05% P20) running buffer, then subjected to doubling dilution to 1.56 nM with this buffer, thus obtaining antibody solutions in a range of concentrations from 400 nM to 1.56 nM. At the end of each experiment, the chip was regenerated by washing with 3M MgCl₂ solution at a flow rate of 30 μL/min for 30 s to remove captured antibody together with antigen. The raw data were analyzed using Biacore Insight Evaluation Software (version 2.0.15.12933) with a 1:1 fit model and affinity and kinetic experimental data of the resulting bispecific antibodies were shown in Table 4.

human CD3 E&D protein, sequence (P07766 23-126, chain 1 of 2): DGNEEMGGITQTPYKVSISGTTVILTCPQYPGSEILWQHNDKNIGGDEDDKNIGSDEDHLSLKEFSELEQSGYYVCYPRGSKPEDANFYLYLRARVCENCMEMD
human CD3 E&D protein, sequence (P04234 22-105, chain 2 of 2, further chain): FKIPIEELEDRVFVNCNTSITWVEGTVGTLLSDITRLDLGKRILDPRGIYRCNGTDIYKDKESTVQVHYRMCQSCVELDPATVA

B1: 31905-38AA (bispecific antibody, human IgG1, kappa)
heavy: QVQLVQSGAEVKKPGASVKVSCKASGYIFTNYWIHWVRQAPGQGLEWMGRIYPGTGNTYYNEKFTGRVTMTRDTSTSTVYMELSSLRSEDTAVYYCAREGYGKGNSMDYWGQGTTVTVSS[human IgG1 constant region with changes cut from this listing]
light: DIVMTQSPDSLAVSLGERVTMNCKSSQSLLNAGNQKNYLTWYQQKPGQPPKLLFYWASTRESGVPDRFSGSGSGTDFTLTISSVQAEDVAVYHCQNAYYYPYTFGGGTKLEIKRTVAAPSVFIFPPSDEQLKSGTASVVCLLNNFYPREAKVQWKVDNALQSGNSQESVTEQDSKDSTYSLSSTLTLSKADYEKHKVYACEVTHQGLSSPVTKSFNRGECGGGGSAQAVVTQEPSLTVSPGGTVTLTCRSSTGAVTTSNYANWVQQKPGQAPRGLIGGTNKRAPGTPARFSGSLLGGKAALTLSGAQPEDEAEYYCALWYSNLWVFGGGTKLTVLGGGGSGGGGSGGGGSEVKLVESGGGLVQPGGSLKLSCAASGFTFNTYAMNWVRQAPGKGLEWVARIRSKYNNYATYYADSVKDRFTISRDDAKNTLYLQMNNLRTEDTAVYYCVRHGNFGNSYVSWFAYWGQGTLVTVSS
notes: Full-length 6#AA (IgG1 Fc with L234A/L235A) with the anti-CD3 scFv of h160C9AA on the C-terminus of both light chains; also called anti-CD3-CLDN18.2 bispecific antibody; CD3 bivalent antibody
EC50 [1]: 14.1 nM | Top mean fluorescence intensity (Top MFI) [1]: 2020 MFI | T cell activation, CD25+CD69+ % [2]: 38.9% | T cell activation, EC50 [2]: 0.022 nM | TDCC activity, EC50 [2]: 0.13 nM | TDCC activity, Maximum lysis (%) [2]: 54.6% | Jurkat-NFAT luciferase reporter, EC50 [3]: 7.62 nM | Jurkat-NFAT luciferase reporter, Fluorescence value (Max) [3]: 117000 | ADCC activity, EC50 [4]: 0.501 nM | ADCC activity, Maximum lysis (%) [4]: 19.9% | EC50 [5]: 0.98 nM | Top mean fluorescence intensity (Top MFI) [5]: 24200 MFI | EC50 [6]: 0.58 nM | MFI (Max) [6]: 28600 MFI | Kd (human CD3 E&D protein): 0.978 nM | koff (human CD3 E&D protein): 0.000766 s⁻¹ | kon (human CD3 E&D protein): 782000 M⁻¹ s⁻¹

Residue numbers refer to the chain shown, from its start. Names may count otherwise.
